From the supplement of paper PMC9174493
The other results are listed elsewhere or left out. Single values of this set are uncertain. Values with irradiation are relative to irradiated vehicle.

What was measured:
A549-Dual [1] = test: NF-kB reporter (SEAP) activity, viability-corrected, relative to vehicle (fold change vs vehicle); higher = more activation of STING-IRF / NF-kB immune response reporter; details: 10 µM
A549-Dual [2] = test: ISRE reporter (Lucia luciferase) activity, viability-corrected, relative to vehicle (fold change vs vehicle); higher = more activation of STING-IRF / NF-kB immune response reporter; details: 10 µM
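For NF-kB reporter (SEAP) activity, viability-corrected, relative to vehicle in this document: viability correction based on the alamar blue assay, with concentrations leaving 10% survival or less dropped.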

Row | Compound | NF-kB reporter (A549-Dual [1]; irradiation: 8 Gy/4 fr) | NF-kB reporter (A549-Dual [1]; irradiation: none) | ISRE reporter (A549-Dual [2]; irradiation: 8 Gy/4 fr) | ISRE reporter (A549-Dual [2]; irradiation: none)
1 | CCC(Cc1c(I)cc(I)c(N)c1I)C(=O)O (stereo not given) [Iopanoic acid] | 1.62 | 0.876 | 1.77 | 0.91
2 | CCOC(=O)C(CCc1ccccc1)NC(C)C(=O)N1Cc2cc(OC)c(OC)cc2CC1C(=O)O.Cl (stereo not given) [Moexipril HCl] | 0.88 | 1.01 | 0.95 | 0.849
3 | CCCCCCCCNC(=N)NC(=N)NCc1ccc(Cl)c(Cl)c1.Cl [Olanexidine Hydrochloride semihydrate] | 1.39 | 2.16 | 0.558 | 1.67
4 | COC(=O)Nc1nc2cc(C(=O)c3ccccc3)ccc2[nH]1 [Mebendazole] | 0.728 | 1.67 | 0.141 | 1.26
5 | CCC1OC(=O)CC(O)C(C)C(OC2OC(C)C(O)C(N(C)C)C2O)C(CCN2CC(C)CC(C)C2)CC(C)C(=O)/C=C/C(C)=C/C1COC1OC(C)C(O)C(OC)C1OC.O=P(O)(O)O (stereo not given) [Tilmicosin phosphate] | 0.758 | 0.837 | 0.68 | 0.693
6 | COc1cc(NS(=O)(=O)c2ccc(N)cc2)ncn1 [Sulfamonomethoxine] | 0.917 | 1.1 | 0.978 | 1.04
7 | CC1(C)CC1C(=O)N/C(=C\CCCCSCC(N)C(=O)O)C(=O)O (stereo not given) [Cilastatin] | 1.43 | 0.878 | 1.09 | 0.992
8 | COc1ccc2cc3[n+](cc2c1OC)CCc1cc2c(cc1-3)OCO2.[Cl-] [Berberine chloride] | 0.69 | 1.35 | 0.25 | 0.898
9 | CCC(C)C1OC2(CCC1C)CC1CC(C/C=C(\C)C(OC3CC(OC)C(OC4CC(OC)C(O)C(C)O4)C(C)O3)C(C)/C=C/C=C3\COC4C(O)C(C)=CC(C(=O)O1)C34O)O2 (stereo not given) [Ivermectin] | 1.14 | 3.29 | 1.62 | 4.36
10 | CC(=O)Oc1cc(C)c(OC(C)=O)c2ccccc12 [Menadiol Diacetate] | 0.322 | 0.6 | 0.144 | 0.217
11 | CCCC(CCC)C(=O)O.CCCC(CCC)C(=O)[O-].[Na+] [Divalproex Sodium] | 0.738 | 0.92 | 0.737 | 0.792
12 | Cc1cn(C2C=CC(CO)O2)c(=O)[nH]c1=O (stereo not given) [Stavudine (d4T)] | 0.706 | 0.9 | 0.707 | 0.685
13 | CC1(C)C2CCC1(C)C(O)C2 (single isomer, unassigned; (+)) [(+)-Borneol] | 1.05 | 0.727 | 0.864 | 0.528
14 | CN(C)CC/C=C1/c2ccccc2COc2ccc(CC(=O)O)cc21.Cl [Olopatadine HCl] | 0.956 | 0.977 | 0.951 | 0.969
15 | COc1ccc2[nH]c(S(=O)Cc3ncc(C)c(OC)c3C)nc2c1 (stereo not given) [Omeprazole] | 0.829 | 0.744 | 0.717 | 0.688
